The target in experiment [1] is T1, Immunity Related GTPase M (IRGM), endogenous (human (endogenous in THP-1)) (UniProt A1A4Y4).
T1 sequence: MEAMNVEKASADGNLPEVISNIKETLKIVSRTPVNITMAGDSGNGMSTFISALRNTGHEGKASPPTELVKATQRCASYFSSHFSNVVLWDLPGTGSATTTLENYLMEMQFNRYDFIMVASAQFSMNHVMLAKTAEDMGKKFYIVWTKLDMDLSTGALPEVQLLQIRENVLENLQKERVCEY
Briefly: co-IP; immunoprecipitation of endogenous IRGM and endogenous sensor proteins in THP-1 cell lysates; NP-40 lysis buffer, protein G dynabeads, 4°C.

Sequences of proteins named here, by UniProt entry; tags and fusion partners are left off. Residues count along the entry.
UniProt Q9NPP4: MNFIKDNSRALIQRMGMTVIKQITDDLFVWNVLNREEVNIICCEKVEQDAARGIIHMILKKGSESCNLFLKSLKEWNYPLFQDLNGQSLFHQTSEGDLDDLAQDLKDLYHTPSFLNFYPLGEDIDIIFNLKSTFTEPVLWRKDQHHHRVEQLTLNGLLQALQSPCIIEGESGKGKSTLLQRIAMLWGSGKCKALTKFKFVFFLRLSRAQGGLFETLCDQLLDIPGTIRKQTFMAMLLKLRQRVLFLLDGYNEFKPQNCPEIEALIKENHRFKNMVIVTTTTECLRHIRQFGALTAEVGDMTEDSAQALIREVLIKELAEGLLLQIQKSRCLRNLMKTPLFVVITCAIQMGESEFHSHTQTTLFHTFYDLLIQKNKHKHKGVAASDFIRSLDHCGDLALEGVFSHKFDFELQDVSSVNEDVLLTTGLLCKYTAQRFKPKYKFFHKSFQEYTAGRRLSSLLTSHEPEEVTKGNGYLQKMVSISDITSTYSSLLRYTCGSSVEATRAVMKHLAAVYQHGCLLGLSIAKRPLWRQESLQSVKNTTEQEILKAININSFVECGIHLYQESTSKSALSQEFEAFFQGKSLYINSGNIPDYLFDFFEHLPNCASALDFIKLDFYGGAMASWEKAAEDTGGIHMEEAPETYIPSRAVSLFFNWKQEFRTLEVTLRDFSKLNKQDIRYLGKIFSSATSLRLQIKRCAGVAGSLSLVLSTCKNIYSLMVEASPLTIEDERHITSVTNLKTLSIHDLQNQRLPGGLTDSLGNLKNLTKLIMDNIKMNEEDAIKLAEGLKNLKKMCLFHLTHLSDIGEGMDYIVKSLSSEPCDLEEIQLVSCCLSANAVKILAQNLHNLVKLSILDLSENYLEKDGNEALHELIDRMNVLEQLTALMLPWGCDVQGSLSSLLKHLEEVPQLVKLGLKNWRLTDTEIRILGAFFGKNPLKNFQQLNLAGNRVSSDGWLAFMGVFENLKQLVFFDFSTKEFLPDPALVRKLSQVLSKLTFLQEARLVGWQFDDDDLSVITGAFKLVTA
UniProt O00206, residues 24-839: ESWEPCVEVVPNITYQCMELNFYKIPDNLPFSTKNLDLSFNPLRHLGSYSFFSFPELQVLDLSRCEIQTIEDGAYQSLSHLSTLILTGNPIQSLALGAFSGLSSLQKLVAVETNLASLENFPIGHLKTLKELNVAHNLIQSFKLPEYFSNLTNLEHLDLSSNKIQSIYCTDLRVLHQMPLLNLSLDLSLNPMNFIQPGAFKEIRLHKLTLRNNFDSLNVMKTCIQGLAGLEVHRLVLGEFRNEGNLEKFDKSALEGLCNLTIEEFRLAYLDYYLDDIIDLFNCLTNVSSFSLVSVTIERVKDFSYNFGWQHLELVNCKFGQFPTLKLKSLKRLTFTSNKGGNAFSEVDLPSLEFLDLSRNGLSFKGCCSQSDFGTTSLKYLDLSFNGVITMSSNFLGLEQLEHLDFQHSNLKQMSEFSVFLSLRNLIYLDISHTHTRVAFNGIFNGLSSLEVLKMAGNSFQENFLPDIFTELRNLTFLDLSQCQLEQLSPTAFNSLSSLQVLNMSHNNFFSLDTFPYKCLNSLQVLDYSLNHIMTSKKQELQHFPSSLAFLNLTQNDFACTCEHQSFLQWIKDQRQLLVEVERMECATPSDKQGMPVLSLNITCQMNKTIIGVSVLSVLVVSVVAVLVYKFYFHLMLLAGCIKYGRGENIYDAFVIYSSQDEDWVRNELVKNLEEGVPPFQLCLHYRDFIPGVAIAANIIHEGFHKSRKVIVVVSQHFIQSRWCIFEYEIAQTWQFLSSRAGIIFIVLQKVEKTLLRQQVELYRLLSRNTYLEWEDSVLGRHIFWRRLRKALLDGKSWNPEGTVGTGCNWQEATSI
UniProt Q8N884: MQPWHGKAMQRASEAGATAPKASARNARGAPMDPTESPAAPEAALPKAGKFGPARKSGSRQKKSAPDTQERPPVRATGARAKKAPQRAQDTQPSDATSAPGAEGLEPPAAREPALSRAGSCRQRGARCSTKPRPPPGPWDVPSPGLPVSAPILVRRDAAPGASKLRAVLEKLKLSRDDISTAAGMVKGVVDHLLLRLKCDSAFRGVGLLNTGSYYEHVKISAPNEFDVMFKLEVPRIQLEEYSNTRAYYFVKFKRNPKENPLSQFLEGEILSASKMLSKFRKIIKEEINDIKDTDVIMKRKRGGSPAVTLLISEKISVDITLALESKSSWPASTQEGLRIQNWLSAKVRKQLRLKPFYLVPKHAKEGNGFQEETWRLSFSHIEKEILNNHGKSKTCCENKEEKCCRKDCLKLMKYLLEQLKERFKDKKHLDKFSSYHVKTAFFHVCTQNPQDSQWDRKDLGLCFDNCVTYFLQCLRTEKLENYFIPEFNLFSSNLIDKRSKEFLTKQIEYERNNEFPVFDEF
UniProt Q96CV9: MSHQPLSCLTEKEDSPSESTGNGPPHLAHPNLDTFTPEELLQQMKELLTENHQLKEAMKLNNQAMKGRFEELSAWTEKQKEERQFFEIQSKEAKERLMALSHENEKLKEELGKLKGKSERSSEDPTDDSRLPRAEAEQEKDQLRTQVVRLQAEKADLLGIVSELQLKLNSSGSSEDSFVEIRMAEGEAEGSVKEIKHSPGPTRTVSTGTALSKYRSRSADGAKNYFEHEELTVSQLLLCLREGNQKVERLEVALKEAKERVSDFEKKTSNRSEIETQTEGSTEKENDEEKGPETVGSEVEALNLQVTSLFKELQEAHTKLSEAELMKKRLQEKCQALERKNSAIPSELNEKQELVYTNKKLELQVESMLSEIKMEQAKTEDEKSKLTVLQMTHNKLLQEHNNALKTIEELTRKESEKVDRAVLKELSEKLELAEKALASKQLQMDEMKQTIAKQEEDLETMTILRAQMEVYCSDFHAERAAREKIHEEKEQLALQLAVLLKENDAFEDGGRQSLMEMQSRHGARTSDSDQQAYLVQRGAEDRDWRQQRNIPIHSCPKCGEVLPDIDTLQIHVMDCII

The target in experiment [2] is HA-p62 (UniProt Q13501). The experiment can be described thus: co-IP; HA-p62 and Flag-tagged RIG-I, TLR3 or cGAS in the absence and presence of GFP or GFP-IRGM, HEK293T cell lysates; p62 immunoprecipitated.
Experiment [3] deals with T2, GFP-IRGM (human) (UniProt A1A4Y4).
T2 sequence: T1 sequence
Briefly: co-IP; GFP-IRGM and Flag-tagged proteins overexpressed in HEK293T, cell lysates; NP-40 lysis buffer, protein G dynabeads, 4°C; reverse co-IPs too; for cGAS, RIG-I and TLR3 also in control siRNA or p62 siRNA transfected cells.

The target of experiment [4] is T3, GST-IRGM (human) (UniProt A1A4Y4).
T3 sequence: T1 sequence
The experiment can be described thus: pull-down; GST or GST-IRGM on Glutathione Sepharose beads incubated with in vitro translated [35S]-labeled Myc-tagged proteins; NETN-E buffer (50 mM Tris pH 8.0, 100 mM NaCl, 6 mM EDTA, 6 mM EGTA, 0.5% NP-40, 1 mM DTT), 2 h at 4°C; autoradiography; only the target purified.

Results are given in words; binding and its absence hold for the method and conditions named. Binding seen in cells or lysates may run through a third protein. Some binding calls cover weakened binding; strength is not graded here. For some assays here: Sequences can lack the tags named with a protein.

Turning to “NLRC4, endogenous (from UniProt Q9NPP4 1-1024)”, the binding entry in experiment [1] is “no binding”.
As to “Flag-TLR3 (from UniProt O15455 24-904) (receptor)”, the binding result in experiment [2] and in experiment [3] was “binds” in each case.
On to “TLR3, endogenous (from UniProt O15455 24-904) (receptor)”, for which the binding entry in experiment [1] was “binds”.
“TLR4, endogenous (from UniProt O00206 24-839) (receptor)”: the binding entry in experiment [1] is recorded as “no binding”.
As for “Myc-TLR3, in vitro translated (from UniProt O15455 1-904) (receptor)”, in experiment [4], the binding entry is “binds weakly”.
Take Flag-p62 (from UniProt Q13501 1-440): the binding result in experiment [3] is on record as “binds”.
On to Flag-cGAS (from UniProt Q8N884 1-522), for which the binding entry in experiment [3] is “binds”.
“cGAS, endogenous (from UniProt Q8N884 1-522)”: the binding entry in experiment [1] is reported as “binds”.
In the case of “Myc-cGAS, in vitro translated (from UniProt Q8N884 1-522)”, the binding result in experiment [4] is “binds”.
Turning to “Flag-optineurin (from UniProt Q96CV9 1-577)”, in experiment [3], the binding result was “no binding”.
